Test results reported in article PMC4336329 (PLoS ONE, 2015).
The whole screen tested about 310,000 compounds, of which about 14,000 (4.5%) showed an effect of 50% or more. The effect is printed as a negative number. Some of the results follow.

target: human ether-à-go-go-related gene (hERG) potassium channel (human, UniProt Q12809); experiment: primary screen, population patch clamp on CHO cells stably expressing hERG
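Note: peak tail current of the secondary pulse compared with the same well before compound.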

Chain of human ether-à-go-go-related gene (hERG) potassium channel (Q12809 whole entry, looked up): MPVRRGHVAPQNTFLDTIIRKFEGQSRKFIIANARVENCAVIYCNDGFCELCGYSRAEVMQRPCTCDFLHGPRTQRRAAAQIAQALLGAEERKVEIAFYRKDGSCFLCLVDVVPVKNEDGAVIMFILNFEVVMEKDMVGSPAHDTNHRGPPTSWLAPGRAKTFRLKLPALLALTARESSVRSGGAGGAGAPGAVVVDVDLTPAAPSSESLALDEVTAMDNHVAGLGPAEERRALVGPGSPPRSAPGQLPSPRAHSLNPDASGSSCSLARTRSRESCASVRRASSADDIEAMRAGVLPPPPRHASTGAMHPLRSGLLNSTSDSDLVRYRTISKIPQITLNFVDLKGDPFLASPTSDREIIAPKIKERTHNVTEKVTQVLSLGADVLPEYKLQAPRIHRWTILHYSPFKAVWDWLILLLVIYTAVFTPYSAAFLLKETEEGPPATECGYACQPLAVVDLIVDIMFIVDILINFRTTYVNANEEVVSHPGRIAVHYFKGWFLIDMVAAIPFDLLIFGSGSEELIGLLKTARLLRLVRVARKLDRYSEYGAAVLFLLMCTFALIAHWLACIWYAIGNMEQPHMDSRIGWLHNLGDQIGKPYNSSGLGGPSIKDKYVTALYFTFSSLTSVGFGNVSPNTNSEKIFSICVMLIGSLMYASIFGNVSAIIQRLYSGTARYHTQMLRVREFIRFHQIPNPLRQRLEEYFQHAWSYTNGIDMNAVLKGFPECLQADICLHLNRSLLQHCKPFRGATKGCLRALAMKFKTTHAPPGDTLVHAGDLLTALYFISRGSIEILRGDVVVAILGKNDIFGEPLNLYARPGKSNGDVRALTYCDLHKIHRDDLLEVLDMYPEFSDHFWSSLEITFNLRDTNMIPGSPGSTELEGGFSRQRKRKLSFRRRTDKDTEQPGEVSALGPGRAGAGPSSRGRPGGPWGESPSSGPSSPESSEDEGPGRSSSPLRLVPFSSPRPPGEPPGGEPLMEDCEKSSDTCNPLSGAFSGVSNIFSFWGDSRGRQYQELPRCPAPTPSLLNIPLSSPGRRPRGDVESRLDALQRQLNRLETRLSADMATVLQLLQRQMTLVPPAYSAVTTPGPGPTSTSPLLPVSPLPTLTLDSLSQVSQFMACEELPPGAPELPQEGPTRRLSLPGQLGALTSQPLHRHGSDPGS

Row | SMILES | hERG current change (%, negative = inhibition) at 10uM [%]
1 | Cc1c(NC(=S)NC(=O)c2ccc(Br)o2)c(=O)n(-c2ccccc2)n1C | 3.89
2 | CC(C)(C)c1cc(CCC(=O)N2CCC2)cc(C(C)(C)C)c1O | -6.37
3 | CCc1c(C)c(C#N)c2nc3ccccc3n2c1NCC1CCCO1 (stereo not drawn) | -28.6
4 | Cc1ccc(N2CCN(C(=O)c3ccccc3F)CC2)c(C)c1 | -8.81
5 | COc1ccc(C2C(C(=O)c3cccs3)=C(O)C(=O)N2c2nnc(C)s2)cc1OC (stereo not drawn) | 1.32
6 | COc1ccccc1NC(=O)N1CCN(c2ncccn2)CC1 | 6.96
7 | O=C(CSc1ncn[nH]1)Nc1nc(-c2ccccc2)ns1 | -7.44
8 | O=C(COC(=O)/C=C/c1ccc(C(F)(F)F)cc1)NCC1CCCCC1 | 0.926
9 | CCOc1cc(NC(=O)c2ccccn2)c(OCC)cc1NC(=O)c1ccccc1 | 24.9
10 | CCOc1cccc(C2/C(=C(\O)c3ccc4c(c3)OCCO4)C(=O)C(=O)N2Cc2ccncc2)c1 (stereo not drawn) | 14.7
11 | CCC(C(=O)NC(C)CCc1ccccc1)n1nc(C)n2c(cc3occc32)c1=O (stereo not drawn) | -27.7
12 | NS(=O)(=O)c1ccc(CCN=C(NS(=O)(=O)c2cccs2)c2ccccc2)cc1 | 11.8
13 | COC(CNC(=O)CCc1c(C)nc2c(-c3ccc(F)cc3)c(C)nn2c1C)OC | -21.8
14 | CC(OC(=O)CN(C)S(=O)(=O)c1ccc(Cl)cc1)C(=O)Nc1ncc(Cl)cc1Cl (stereo not drawn) | -13.5
15 | CCC(Sc1nc2ccccc2c(=O)n1CC1CCCO1)C(=O)NCc1cccnc1 (stereo not drawn) | -23.5
16 | COCCNC(=S)N(CCc1c(C)[nH]c2ccc(F)cc12)Cc1ccco1 | -7.74
17 | Cc1cccc(N2CCN(C(=O)c3ccc(Cl)c(S(=O)(=O)NCc4ccco4)c3)CC2)c1C | 4.75
18 | Cc1cc(C)c2c(N)c(C(=O)NN3CC(=O)N(c4ccccc4)CC3=O)sc2n1 | -0.929
19 | COc1ccc(C(=O)Nc2ccccc2NC(=O)c2ccc(OC)cc2)cc1 | -5.58
20 | C=C1SC(=Nc2ccccc2Cl)N(C(=O)c2sc3ccccc3c2Cl)C12CCCCC2 | 12.3
21 | Cc1c(C(=O)N2CCN(c3ccccn3)CC2)sc2ncnc(N3CCOCC3)c12 | -59
22 | CSc1nsc(SCC(=O)Nc2ccc(F)cc2)n1 | -3.68
23 | Cc1cc(/C=C2/C(=N)N3C(=NC2=O)SN=C3S(C)(=O)=O)c(C)n1-c1ccccc1 | 0.917

Row | SMILES | hERG current change (%, negative = inhibition) at 10uM [%]
24 | CCC(=O)n1nc(-c2ccc(OC)cc2)nc1SC | 21.7
25 | Cc1cc(C(=O)NC2CCCCC2)on1 | 7.79
26 | Brc1cccc(CNc2nc3ccccc3n2CCN2CCOCC2)c1 | -76.3
27 | C=CCNc1nc2ccccc2nc1NS(=O)(=O)c1ccc(F)cc1 | 5.87
28 | COc1cccc(-c2cc(C(=O)N/N=C/c3cccc(OC)c3OC)c3ccccc3n2)c1 | 0.29
29 | COc1cc(C(=O)NNC(=O)c2ccccc2Br)ccc1OCC(=O)N1CCOCC1 | 18.5
30 | CC(=O)NCCc1ccc(S(=O)(=O)N2CCCC2)cc1 | 5.28
31 | O=C(CSc1nnc(-c2ccccc2F)n1C1CC1)Nc1ccc2[nH]c(=O)[nH]c2c1 | 20.7
32 | CCc1nc2ccccc2c(C(=O)OCC(=O)NCCCN2CCCC2=O)c1C | 9.99
33 | COc1ccc(CNC(=O)CCCCCNc2nc(=S)[nH]c3ccccc23)cc1 | 9.93
34 | Cc1ccccc1NC(=O)N1CCN(C/C=C/c2ccccc2)CC1 | -22.7
35 | Cc1cccc2cc(CN(CCN(C)C)C(=S)NCc3ccco3)c(=O)[nH]c12 | -38.9
36 | O=C(NCCc1ccccc1)c1ccccc1NC(=O)C1CCCO1 (stereo not drawn) | 14.1
37 | Nc1ccc2nc(-c3ccc(N)c(Cl)c3)[nH]c2c1 | 10.8
38 | COc1ccc(C(=O)COC(=O)CSCc2c(C)noc2C)cc1OC | 6.04
39 | COc1ccc(CN2C(=O)CC(=O)NC2=O)cc1 | -10.2
40 | NNC(=O)c1nnn(-c2nonc2N)c1-c1cccs1 | -19.8
41 | CC(C)CCNc1nc(N2CCCC2)c2c(c1C#N)CCN(C)C2 | -58.5
42 | COc1cc(C(=S)N2CCOCC2)ccc1OS(=O)(=O)c1ccc(Cl)cc1 | -14.3
43 | Cc1ccc(/C=C2\SC(=S)N(CCC(=O)NNS(=O)(=O)c3ccc(C)cc3)C2=O)cc1 | 28.8
44 | COc1ccccc1CNC(=O)CNC(=O)N1CC(=O)Nc2ccccc21 | 16.5
45 | CCOc1cc(CNc2nn[nH]n2)ccc1OCC(=O)NC(C)(C)C | 13.2
